Experimental data published in publication PMC4336329 (PLoS ONE, 2015).
Among all 310,000 compounds or so, about 14,000 (4.5%) showed an effect of 50% or more. Effects have a minus sign here. Some of the results follow.

These molecules were tested against human ether-à-go-go-related gene (hERG) potassium channel (human, UniProt Q12809) (assay: primary screen, population patch clamp on CHO cells stably expressing hERG).
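Also: peak tail current of the secondary pulse compared with the same well before compound.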

human ether-à-go-go-related gene (hERG) potassium channel, sequence (Q12809 whole entry, looked up): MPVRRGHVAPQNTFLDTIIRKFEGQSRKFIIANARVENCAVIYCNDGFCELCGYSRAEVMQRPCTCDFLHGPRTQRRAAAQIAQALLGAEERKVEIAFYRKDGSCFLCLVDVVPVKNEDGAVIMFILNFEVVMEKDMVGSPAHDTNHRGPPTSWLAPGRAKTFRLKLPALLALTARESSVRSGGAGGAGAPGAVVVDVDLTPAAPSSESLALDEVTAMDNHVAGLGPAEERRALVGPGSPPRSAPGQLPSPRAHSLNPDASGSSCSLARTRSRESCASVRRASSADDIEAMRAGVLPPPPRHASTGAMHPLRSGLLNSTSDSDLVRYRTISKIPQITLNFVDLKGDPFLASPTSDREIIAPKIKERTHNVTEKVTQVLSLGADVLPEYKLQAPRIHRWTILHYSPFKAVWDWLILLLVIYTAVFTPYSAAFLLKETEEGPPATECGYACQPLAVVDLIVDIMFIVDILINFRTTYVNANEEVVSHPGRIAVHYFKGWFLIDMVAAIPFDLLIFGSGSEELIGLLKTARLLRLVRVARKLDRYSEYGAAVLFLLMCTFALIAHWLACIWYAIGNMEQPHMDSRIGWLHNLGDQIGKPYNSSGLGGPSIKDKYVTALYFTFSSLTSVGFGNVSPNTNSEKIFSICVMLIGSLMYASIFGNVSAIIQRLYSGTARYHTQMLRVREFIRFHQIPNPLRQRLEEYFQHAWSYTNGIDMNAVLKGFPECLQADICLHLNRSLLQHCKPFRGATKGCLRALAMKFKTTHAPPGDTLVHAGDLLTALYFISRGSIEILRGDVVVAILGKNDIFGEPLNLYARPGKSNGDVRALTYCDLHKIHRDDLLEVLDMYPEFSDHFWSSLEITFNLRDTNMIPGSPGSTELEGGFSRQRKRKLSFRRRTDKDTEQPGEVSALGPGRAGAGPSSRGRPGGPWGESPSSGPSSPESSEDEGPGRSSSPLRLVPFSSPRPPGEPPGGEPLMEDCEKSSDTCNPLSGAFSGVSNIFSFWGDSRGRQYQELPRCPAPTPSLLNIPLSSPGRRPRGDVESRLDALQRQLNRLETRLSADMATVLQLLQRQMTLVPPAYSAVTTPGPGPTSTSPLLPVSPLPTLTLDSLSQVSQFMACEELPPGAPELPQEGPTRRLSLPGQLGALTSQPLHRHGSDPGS

SMILES	hERG current change (%, negative = inhibition) at 10uM [%]
CC(OC(=O)CN1C(=O)COc2ccccc21)C(=O)NCc1ccc(F)cc1 (stereo not drawn)	-5.95
O=C(NC1CCCCCC1)c1cc(S(=O)(=O)N2CCOCC2)ccc1N1CCCCC1	-26.3
NC(=O)COc1cc2oc(=O)c3c(c2cc1Cl)CCCC3	12
O=C(/C=C/Nc1ccccc1F)c1ccc(Br)cc1	0.681
C=CCn1c(SCC(=O)N2CCN(CCO)CC2)nc2sc3c(c2c1=O)CCC3	-20.9
Cc1ccc2c(c1)N(C(=O)CCC(=O)NCCCN1CCC(Cc3ccccc3)CC1)CCO2	-77.1
CC(=NCCC(c1ccccc1)c1ccccc1)c1c(O)n(C)c(=O)n(C)c1=O	-16.7
Cc1ccc(C2C3=C(CCCC3=O)Nc3c2c(C)nn3-c2ccccn2)o1 (stereo not drawn)	1.07
CCOc1ccc(N2CC(C(=O)N3CCc4ccccc4C3)CC2=O)cc1 (stereo not drawn)	-75
Cn1nc(-c2ccc(Cl)cc2)c2cc(C(=O)NC3CC3)sc21	-1.54
CN(C(=O)/C=C/c1ccc(F)cc1)C1CCCCC1	-22.6
COc1ccc(CCN=Cc2ccc(O)cc2)cc1OC	19
COc1ccccc1NC(=O)N1CCC(NC(=O)C2CCCCC2)CC1	5.27
NS(=O)(=O)c1ccc(NC(=O)COC(=O)COc2ccc(Br)cc2)cc1	9.21
CCN(CC(=O)Nc1ccc(OC)cc1)C(=O)c1cc(S(=O)(=O)N2CCOCC2)ccc1N1CCCC1	-13.2
COc1cc(-c2nnc(SCC(=O)NC3CCS(=O)(=O)C3)o2)cc(OC)c1OC (stereo not drawn)	12.7
Cc1ccc2oc(=O)c3cnn(CC(=O)N4CCCc5ccccc54)c3c2c1	-1.98
COc1ccc2[nH]c(=O)c(CN(Cc3ccc4c(c3)OCO4)C(C)=O)cc2c1	-14.8
NC(=O)CSc1nnc(-c2cnccn2)n1-c1ccccc1	4.66
Cc1c(O)c(CN2CCCCC2)cc2c1oc(=O)c1ccccc12	7.11
O=C1NC2=C(CCc3ccccc32)C(c2ccc(Br)cc2)N1 (stereo not drawn)	-56.3
Cc1sc2ncnc(SCC(=O)NNC(=O)COc3cccc4ccccc34)c2c1C	3.43

SMILES	hERG current change (%, negative = inhibition) at 10uM [%]
CCOc1ccc(NC(=S)N2CCN(S(=O)(=O)c3ccccc3)CC2)cc1	-31.6
CC(=O)NC(=S)Nc1ccc(N2CCOCC2)c(S(=O)(=O)Nc2cc(Cl)ccc2Cl)c1	16
COc1ccc(OC)c(NC(=O)c2c(NC(=O)CCC(=O)O)sc3c2CCCCC3)c1	18.2
COc1cccc(OC)c1OCCCCN1CCC(Cc2ccccc2)CC1.O=C(O)C(=O)O	-81.9
COc1ccccc1Nc1nc(-c2sc(N)nc2C)cs1	6.95
COCCCNC(=O)c1cc(-c2cccnc2)nc2ccccc12	16.6
O=[N+]([O-])c1ccccc1/C=N/n1c(C(F)(F)F)n[nH]c1=S	11
Cn1cc(/C=C/C(=O)N2CCCC(C(=O)c3ccc(C(F)(F)F)cc3)C2)cn1 (stereo not drawn)	-15.9
CC(C)(C)OC(=O)N1CCC(CC2CC(c3cccc(Br)c3)=NO2)(C(=O)O)CC1 (stereo not drawn)	4.19
CCCNC(=O)c1ccc(COc2ccc(CCC)cc2OC)o1	-38.6
C(#CCN1CCC(Cc2ccccc2)CC1)COCCOCc1ccccc1	-11.2
COC(=O)c1cn(CC(=O)Nc2ccc(OC)cc2)c2ccccc12	8.2
O=C(O)CNC(=O)c1ccc(NC(=O)/C(=C/c2ccccc2)NC(=O)c2ccccc2)cc1	31.5
CNC(=O)COC(=O)c1ccccc1Oc1ccccc1	-5.63
O=C(NC1CCCCC1)c1cccnc1Sc1ccccc1	22.6
COc1cc(NC(=O)c2ccc3c(c2)OCCO3)ccc1NC(=O)c1ccco1	18.3
CC(C)CNC(=O)C(=O)NCC1OCCCN1S(=O)(=O)c1cccs1 (stereo not drawn)	6.9
CCn1ncc(S(=O)(=O)Nc2cc(Cl)ccc2C)c1C	-5.15
CN1C(=O)c2ccc(NC(=O)c3ccc(Cl)cc3Cl)cc2C1=O	3.42
O=C(CN1CCOc2ccccc21)NCc1ccc(Cl)cc1	-11.7
Cc1ccc(OCCC(=O)OCC(=O)N2c3ccccc3NC(=O)C2(C)C)cc1	-22.5
COc1ccc(OC)c(S(=O)(=O)Nc2cccc3ccccc23)c1	24.2

SMILES	hERG current change (%, negative = inhibition) at 10uM [%]
COc1ccc(-c2nc3ccccc3s2)cc1NC(C)=O	6.39
OC(CC1CC12c1ccccc1-c1ncccc12)(c1ccccc1)c1ccccc1 (stereo not drawn)	-4.74
CN(C(=O)COc1ccc2ccc(=O)oc2c1)C1CCS(=O)(=O)C1 (stereo not drawn)	19.8
O=C(c1cnn2c(C(F)F)cc(-c3ccccc3)nc12)N1CCN(Cc2ccc3c(c2)OCO3)CC1	-21.3
CCOC(=O)Cc1csc(NS(=O)(=O)c2cccc([N+](=O)[O-])c2)n1	13.1
CC(C)c1cc(C(=O)N/N=C/c2ccco2)n[nH]1	-4.15
Cc1ccc(CN2CCN(/N=C/c3cc(Br)cc(Br)c3O)CC2)c(C)c1	0.433
CC(=O)N1CCC(C(=O)N2CCN(S(=O)(=O)c3cccs3)CC2)CC1	14.3
CCCOc1ccc(C(=O)CCC(=O)OCC(=O)Nc2ccc(OCC)cc2)cc1	7.34
O=C(O)Cc1ccc(C(=O)CSc2ccccc2)s1	25.4
O=C(CN1C(=O)NC2(CCCC2)C1=O)OCCOc1cccc(Br)c1	7.92
S=C(c1ccc2c(c1)OCO2)N1CCOCC1	14.5
COC(=O)C1=C(C)N(c2ccc(C)cc2)/C(=C/c2cccs2)C1=O	5.45
CCOC(=O)CCn1cnc2ccc([N+](=O)[O-])cc2c1=O	-8.28
CC(C)CCNC(=O)c1c(CSc2ccccc2)noc1C(=O)NCc1ccccc1	7.2
Cc1cccc(NCC(=O)N/N=C\c2cccc(Oc3ccccc3)c2)c1	20.1
Cc1ccc(SCC(=O)Nc2ccc(N3CCN(C)CC3)c(F)c2)c(C)c1	-72
Cc1cc(N(CN2CCCC2=O)C(=O)c2ccccc2)no1	16.5
CCCCN(C(=O)c1cccc(S(=O)(=O)N2CCOCC2)c1)c1c(N)n(CCC)c(=O)[nH]c1=O	23.9
Nc1nonc1-c1nc2ccccc2n1CC(=O)N/N=C\c1ccc(-c2ccc(Cl)cc2)o1	17.1
O=C(CCSc1ccc(Cl)cc1)NC1CCCCC1	-5.39
Cc1ccc2nc(NC(=O)CN(C)S(=O)(=O)c3ccc(Br)s3)sc2c1	3.87

SMILES	hERG current change (%, negative = inhibition) at 10uM [%]
Br.COc1ccccc1Nc1nc(-c2cccc([N+](=O)[O-])c2)cs1	2.72
CN=C1S/C(=C\c2ccc(Cl)cc2)C(=O)N1C	27
C=CCOc1cc(OC)c(OC)c(OC)c1	8.69
O=C(c1cc2ccccc2o1)N1CCCC1	10.8
CC(C)CCn1c(S(=O)(=O)O)nc2ccccc21	13.2
CC1CCc2sc3nc(N4CCN(CCO)CC4)n4ncnc4c3c2C1 (stereo not drawn)	-42
Cc1c(C)c2c(c(C)c1O)CCC(C)(C(=O)O)O2 (stereo not drawn)	12.4
CC(C)c1cc(NCc2ccccn2)n2c(nc3ccccc32)c1C#N	7.85
Cc1ccc(CC2S/C(=C(/C#N)C(=O)N3CCOCC3)N(c3ccccc3)C2=O)cc1 (stereo not drawn)	-13.2
CC1(c2ccc([N+](=O)[O-])cc2)NC(=O)N(CC(=O)Nc2cccnc2Cl)C1=O (stereo not drawn)	-18.7
Cc1nc2ccccn2c1C(=O)C(=O)Nc1cc(F)ccc1F	11.1
Cc1nc(-c2ccc(Cl)cc2)sc1C1(C)CC(c2ccc([N+](=O)[O-])cc2)=NO1 (stereo not drawn)	13.4
COc1ccc(CC(=O)Oc2ccc(Cl)cc2Br)cc1S(=O)(=O)N1CCOCC1	6.13
O=C(Oc1ccc(/C=N/NC(=O)c2ccccn2)cc1)c1cccc(F)c1	2.86
CC(=O)N1c2ccc3ccccc3c2C2C=CCC2C1c1ccc(Br)cc1 (stereo not drawn)	1.08
COC(=O)c1sccc1NC(=O)c1ccc(Cl)cc1	15.4
CC1(C)CC(=O)C2=C(C1)N(c1ccccc1)C(=O)CC2c1ccc(O)cc1 (stereo not drawn)	10.8
CN(CC(=O)Nc1ccc(N2CCOCC2)cc1)C(=O)CCNC(=O)c1ccccc1Cl	17.8
COc1ccc(Br)cc1CNC(=O)CN1C(=O)C(c2ccccc2)Oc2cccnc21 (stereo not drawn)	6.14
O=C(O)/C=C/C(=O)NCCNc1ncc(C(F)(F)F)cc1Cl	25.7
CCOC(=O)NC(=O)/C(N=Nc1ccc(C(F)(F)F)cc1)=C(\C)O	9.83
